Laboratory results as given in PubChem BioAssay AID504332 (National Center for Advancing Translational Sciences (NCATS), 2011).
Hit rate of the full screen: of about 350,000 compounds, about 31,000 (8.9%) were called active. The shares of active, inactive and inconclusive entries below differ from those in the screen. Calls follow the shape of the dose curve; as a rule, active = well fitted inhibition curve with a large enough effect; inconclusive = small, poorly fitted or top-dose-only effect; inactive = no such curve, though single readings can be large or run the other way. Where the call is inconclusive, the potency comes from a doubtful curve fit.
% is scaled to controls: 0 for no effect and ±100 for the full control effect; potency is read from the fitted curve at half-maximal effect; tags tell the direction and shape of the fitted curve.
Also: nearly all actives have a fitted effect of over 75% in size.

What follows are molecules tested against Histone-lysine N-methyltransferase EHMT2 (Homo sapiens) (UniProt Q96KQ7) (assay: qHTS Assay for Inhibitors of Histone Lysine Methyltransferase G9a). Conditions: G9a H3K9 monomethylation, AlphaScreen, 2 h; activity, negative = inhibition: at 59 µM (top of the series) unless noted.
Chain of UniProt Q96KQ7 (Q96KQ7 whole entry, looked up): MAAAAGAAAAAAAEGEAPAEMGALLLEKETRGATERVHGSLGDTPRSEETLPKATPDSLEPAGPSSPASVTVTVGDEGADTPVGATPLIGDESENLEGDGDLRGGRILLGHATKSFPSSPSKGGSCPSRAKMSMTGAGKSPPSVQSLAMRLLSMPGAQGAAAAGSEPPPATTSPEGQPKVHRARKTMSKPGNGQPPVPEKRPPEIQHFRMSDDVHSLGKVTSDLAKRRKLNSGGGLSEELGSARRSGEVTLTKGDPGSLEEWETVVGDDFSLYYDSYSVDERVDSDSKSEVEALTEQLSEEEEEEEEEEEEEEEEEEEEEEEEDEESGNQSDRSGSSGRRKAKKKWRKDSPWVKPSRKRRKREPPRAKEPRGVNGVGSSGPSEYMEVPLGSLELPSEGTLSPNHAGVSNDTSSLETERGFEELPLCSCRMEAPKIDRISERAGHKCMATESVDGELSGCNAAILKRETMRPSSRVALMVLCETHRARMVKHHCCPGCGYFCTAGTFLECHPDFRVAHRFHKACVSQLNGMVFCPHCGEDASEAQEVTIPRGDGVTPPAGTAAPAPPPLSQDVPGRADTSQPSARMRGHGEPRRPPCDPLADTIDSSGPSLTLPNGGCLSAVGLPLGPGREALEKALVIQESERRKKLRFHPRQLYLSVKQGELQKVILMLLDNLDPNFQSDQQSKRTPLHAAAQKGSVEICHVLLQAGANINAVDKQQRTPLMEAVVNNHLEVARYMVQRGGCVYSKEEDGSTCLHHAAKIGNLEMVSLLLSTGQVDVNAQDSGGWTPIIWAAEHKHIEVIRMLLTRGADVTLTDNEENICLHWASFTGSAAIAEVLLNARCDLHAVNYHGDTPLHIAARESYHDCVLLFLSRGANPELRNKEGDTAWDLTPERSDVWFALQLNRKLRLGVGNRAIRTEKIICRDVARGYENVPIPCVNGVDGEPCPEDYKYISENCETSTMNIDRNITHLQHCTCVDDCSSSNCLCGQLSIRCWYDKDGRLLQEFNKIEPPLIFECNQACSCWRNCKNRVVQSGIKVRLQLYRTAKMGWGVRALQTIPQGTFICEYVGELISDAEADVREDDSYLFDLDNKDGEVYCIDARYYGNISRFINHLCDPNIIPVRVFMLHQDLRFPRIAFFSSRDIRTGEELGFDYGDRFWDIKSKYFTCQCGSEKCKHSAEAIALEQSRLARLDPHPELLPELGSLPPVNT
Summary of the method: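 AlphaScreen detection with an anti-monomethyl H3K9 antibody quantified product after a 2 h room-temperature reaction containing 500 nM biotinylated H3K9 peptide, 20 µM SAM and 20 nM enzyme, which had been preincubated 15 min with compound.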
For `COc1cc(C(=O)NC(=S)Nc2nccs2)cc(OC)c1OC`, the Potency was inconclusive: 44.7 µM [inhibitor, partial curve, poor fit].
`CC(C)Oc1ccc(OCCn2c(=S)[nH]c3c(N)ncnc32)cc1` was tested, and the Potency was active: 2.51 µM.
For `CCC(=O)Nc1cccc(NC(=S)NC(=O)c2cccs2)c1`, the Potency was inconclusive: 31.6 µM [inhibitor, single point].
For `Cc1ccc(C)c(NC(=O)Cc2csc(-c3ccccc3)n2)c1`, the Potency was inconclusive: 1.78 µM [inhibitor, full curve].
With `CCOC(=O)c1ccccc1NC(=O)CSc1nc2ncccc2[nH]1` the “activity, negative = inhibition” value was inactive: 0.593%.
`CCCC(=O)Nc1ccc(C(=O)COC(=O)c2cc(C)oc2C)cc1` was tested, and the Potency was inconclusive: 8.91 µM [inhibitor, partial curve, poor fit].
`COC(=O)c1sc(NC(=S)NC(=O)c2ccccc2F)nc1C` was tested, and the Potency was inconclusive: 0.316 µM [inhibitor, full curve, poor fit].
For `COc1cc(/C=C(\C#N)c2[nH]nc(N)c2C#N)cc(OC)c1O`, the Potency was inconclusive: 79.4 µM [inhibitor, single point].
For `COc1cc(NC(=O)c2ccc(OC)c([N+](=O)[O-])c2)ccc1NC(=O)c1ccco1`, the Potency was inconclusive: 89.1 µM [inhibitor, single point].
For `CCc1ccc2[nH]c(=O)c(C(c3nnnn3Cc3ccco3)N3CCC(C)CC3)cc2c1` (stereo unspecified), the Potency was active: 56.2 µM.
For `COc1ccnc(N2CCN(c3cccc(C(F)(F)F)c3)CC2)c1C#N`, the activity, negative = inhibition was inactive: -13.2% [at 2.33 µM].
With `CCOc1ccc(CNC(=O)c2ccc3nc(Cc4ccc(OC)cc4)oc3c2)cc1OC` the Potency was inconclusive: 0.562 µM [inhibitor, partial curve, poor fit].
For `Cc1c(C(C)(C)O)[nH]c2cc(C(F)(F)F)ccc12`, the Potency was inconclusive: 100 µM [inhibitor, single point].
`Cc1ccc(S(=O)(=O)N2CCN(C(=O)C3=COCCO3)CC2)cc1C` was tested, and the Potency was inconclusive: 89.1 µM [inhibitor, single point].
In the case of `O=C1/C(=C/Nc2cccc([N+](=O)[O-])c2)CCc2ccccc21`, the Potency is reported as inconclusive: 3.55 µM [inhibitor, full curve, poor fit].
For `Cc1ccc(Nc2nnc(SCC(=O)c3ccc(O)cc3O)s2)cc1`, the Potency was active: 31.6 µM.
For `COC(=O)c1cc(C(=O)NCCN2C(=O)S/C(=C\c3cccs3)C2=O)cc([N+](=O)[O-])c1`, the Potency was inconclusive: 5.01 µM [inhibitor, partial curve, poor fit].
For `Cc1ccc(N=Nc2ccc(O)c3ncccc23)cc1`, the Potency was inconclusive: 3.16 µM [inhibitor, full curve, poor fit].
In the case of `CC(=O)OCCCNc1cc(Sc2ccc(Cl)cc2)c2nonc2c1[N+](=O)[O-]`, the Potency is reported as inconclusive: 11.2 µM [inhibitor, partial curve, poor fit].
In the case of `CN(C)c1ccc(/C=N/N=C(N)N)cc1[N+](=O)[O-]`, the Potency is reported as inconclusive: 70.8 µM [inhibitor, partial curve, poor fit].
With `O=C1OC(Nc2ccc3c(c2)OCO3)c2ccccc21` (stereo unspecified) the Potency was inconclusive: 1.58 µM [inhibitor, partial curve, poor fit].
With `COc1ccc(N2CCN(CC(O)COc3ccc(C(C)(C)C)cc3)CC2)cc1` (stereo unspecified) the Potency was inconclusive: 0.141 µM [inhibitor, full curve, poor fit].
For `Cc1ccc(S(=O)(=O)c2[nH]c(-c3ccccc3)nc2SCC(=O)O)cc1`, the Potency was inconclusive: 35.5 µM [inhibitor, partial curve, poor fit].
For `CCOC(=O)c1ccc(NC(=O)CC2C(=O)N(c3ccccc3)C(=O)N2Cc2cccs2)cc1` (stereo unspecified), the “activity, negative = inhibition” value was inactive: 3.95%.
For `Cc1ccc(C)c(S(=O)(=O)Nc2ccc(O)c(C(=O)O)c2)c1`, the Potency was inconclusive: 89.1 µM [inhibitor, single point].
For `CCOC(=O)C1CCN(C(=O)c2cc3cc4ccc(C)cc4nc3o2)CC1`, the Potency was active: 79.4 µM.
In the case of `CCCC(C(=O)NC(C)(C)CC)N(Cc1ccco1)C(=O)CNS(=O)(=O)c1ccccc1` (stereo unspecified), the “activity, negative = inhibition” value is reported as inactive: 1.82% [at 102 µM].
`Cc1ccc(Oc2cc(NC(=O)CCCn3nc([N+](=O)[O-])cc3C)cc([N+](=O)[O-])c2)cc1` was tested, and the Potency was inconclusive: 1.26 µM [inhibitor, full curve].
In the case of `COc1cc(C(=O)O)ccc1Cl`, the Potency is reported as inconclusive: 89.1 µM [inhibitor, single point].
With `CCCCC(CC)C1OCC(C[N+]2(C)CCOCC2)O1` (stereo unspecified) the Potency was inconclusive: 89.1 µM [inhibitor, single point].
`Oc1ccc(/C=N/Nc2ccc(Cl)nn2)c(O)c1O` was tested, and the Potency was inconclusive: 1.41 µM [inhibitor, single point].
With `CS(=O)(=O)N1CCN(C(=O)NC2CCCCC2)CC1` the “activity, negative = inhibition” value was inactive: 2.92% [at 102 µM].
`COc1cc(/C=N/NC(=O)C2COc3ccccc3O2)cc(OC)c1OC` (stereo unspecified) was tested, and the “activity, negative = inhibition” value was inactive: -9.15% [at 102 µM].
With `CCN(C(=O)Cc1c(C(=O)O)[nH]c2ccccc12)c1ccc(OC)cc1` the Potency was inconclusive: 89.1 µM [inhibitor, partial curve, poor fit].
With `CSc1nc(-c2ccccc2)nn1C(=O)c1ccccc1` the “activity, negative = inhibition” value was inactive: 102% [at 102 µM].
In the case of `Cc1ccc(CNC(=O)CCCc2cn(C)c3ccccc23)cc1`, the “activity, negative = inhibition” value is reported as inactive: -0.997% [at 102 µM].
With `O=C(Cc1ccccc1[N+](=O)[O-])NCc1ccco1` the Potency was inconclusive: 50.1 µM [inhibitor, partial curve].
With `CC(N)C(=O)NCC(=O)NC1CSSCC(C(=O)O)NC(=O)C(CO)NC(=O)C(C(C)O)NC(=O)C(Cc2ccccc2)NC(=O)C(C(C)O)NC(=O)C(CCCCN)NC(=O)C(Cc2c[nH]c3ccccc23)NC(=O)C(Cc2ccccc2)NC(=O)C(Cc2ccccc2)NC(=O)C(CC(N)=O)NC(=O)C(CCCCN)NC1=O` (stereo unspecified) the Potency was inconclusive: 3.55 µM [inhibitor, partial curve, poor fit].
For `Cc1cc(C)c(C#N)c(Nc2cccc(C)c2C)n1`, the “activity, negative = inhibition” value was inactive: 35.4% [at 102 µM].
In the case of `CC(=O)c1ccc(N2CCN(C(=O)C3CCN(S(=O)(=O)c4cccc5nonc45)CC3)CC2)cc1`, the “activity, negative = inhibition” value is reported as inactive: 5.39%.
With `CC(C)c1[nH]nc2c1C(Cc1ccccc1)C(C#N)=C(N)O2` (stereo unspecified) the Potency was inconclusive: 39.8 µM [inhibitor, single point].
